Results on 86 compounds are retold here after ChEMBL document CHEMBL4888484, “Replenishing the malaria drug discovery pipeline: Screening and hit evaluation of the MMV Hit Generation Library 1 (HGL1) against asexual blood stage Plasmodium falciparum ,using a nano luciferase reporter read-out” (2022).

SMILES strings stand for the structures. Screen size: about 150,000 compounds; about 540 (0.36%) showed an effect of 50% or more. This is one part of the list.

In the assay the test system is Plasmodium falciparum. The experiment in a line: Primary screen in NF54 nanoGlo assay, in single point, at 2uM, 72h; a lower Z score goes with more inhibition. It is filed as functional, Erythrocyte. Conditions: timepoint 72 hour.
`CC(C)(C)c1ccc(CCC2OCC(CN3CCCCC3)O2)cc1` (configuration not stated): the % Inhibition (as a rule, the change of the read-out against control, counted positive when it falls) is given as 0% and the Z score was -0.03.
With `COc1ccc(CCN(Cc2ccc(C)o2)Cc2ccc(C)o2)cc1OC`, the “% Inhibition” value is on record as 4% and the Z score is on record as -0.55.
Consider `Cc1ccc(C#N)c(N(C(=O)[C@H]2CCCOC2)C(C)C)c1`, for which the “% Inhibition” value is 0% and the Z score is -0.03.
With `O=C(O)c1ccc(Oc2cccc(Cl)c2Cl)nn1`, the “% Inhibition” value is reported as 9% and the Z score is given as -1.82.
Take `O=S(=O)(C[C@H]1CCCO1)NCc1ncc(Br)cn1`: the “% Inhibition” value is -11% and the Z score is 1.75.
With `Cc1ccc(-n2c(=O)[nH]cc(C(=O)Nc3ccc4c(c3)OCO4)c2=O)cc1C`, the “% Inhibition” value is -1% and the Z score is given as 0.23.
On the same counts, the results for `C[C@H](Nc1ncnc2nc[nH]c12)c1ccn(C)n1` are -10% and 1.86.
On the same counts, the results for `C[C@H](O)c1cccc(-c2cc(F)cc(Cn3ccnc3)c2)c1` are -12% and 1.24.
`O=C1CN(C(=O)c2ccncc2Cl)C2CCCCC2N1` (configuration not stated): the “% Inhibition” value is -4% and the Z score amounted to 0.57.
`O=C(CN1CCOC1=O)NCC[C@H]1CCCOC1`: the “% Inhibition” value is -8% and the Z score is recorded as 1.33.
On the same counts, the results for `O=C(NCc1cncc(-c2ccco2)c1)c1cccc(Oc2ccc(F)cc2)c1` are -10% and 1.89.
`Cc1ccc(S(=O)(=O)Nc2ccc(N3CCNCC3)c(C(=O)N3CCC(C)CC3)c2)c(C)c1`: the “% Inhibition” value is -1% and the Z score is on record as 0.11.
Turning to `Cc1cc(C)c2[nH]c(C(=O)NCCCN3CCNC(=O)C3)c(C)c2c1`, the “% Inhibition” value is on record as -2% and the Z score was determined as 0.27.
For `O=C(CCn1cnc2ccccc2c1=O)N(Cc1c(F)cccc1F)C1CC1`, the “% Inhibition” value turned out to be 18% and the Z score is on record as -2.6.
With `CCN(CC)C(=O)Nc1ccc(CN2OCC(C)(C)C2=O)c(Cl)c1`, the “% Inhibition” value was -31% and the Z score is reported as 3.68.
On the same counts, the results for `CNC(=O)c1sc(-c2ccc(N3CCCC3)nc2)nc1C` are -10% and 0.95.
On the same counts, the results for `O=C1CN(C2CCC2)C(=O)N1c1cccc(Cl)c1` are -4% and 0.42.
On the same counts, the results for `O=C(NCc1ccccc1)C1(F)CCN(Cc2cccc3[nH]ccc23)CC1` are -12% and 1.53.
As for `O=C(NC1CCCCC1)[C@H]1CC(=O)N(c2cccc(-c3noc(-c4cccs4)n3)c2)C1`, the “% Inhibition” value is recorded as -8% and the Z score stood at 1.4.
For `COc1ccc(NC(=O)CN2c3ccccc3S(=O)(=O)c3ccccc32)c(OC)c1`, the “% Inhibition” value was -9% and the Z score is listed as 0.94.
As for `O=C(Cn1ccnc1)NC[C@H](O)c1c(Cl)cccc1Cl`, the “% Inhibition” value is recorded as -4% and the Z score worked out at 0.54.
`Cc1ccn(CC(=O)N[C@H]2CC(C)(C)Oc3ccc(F)cc32)n1`: the “% Inhibition” value was -3% and the Z score was determined as 0.57.
In the case of `CCCCN(C)C(=O)Nc1ccc(OC)nc1`, the “% Inhibition” value is given as -15% and the Z score came to 1.99.
In the case of `COc1ccc(C)c2sc(N(CCN3CCOCC3)C(=O)c3ccc(Cl)s3)nc12`, the “% Inhibition” value is -13% and the Z score turned out to be 1.71.
Consider `c1cc(-c2ccc(CN3CCNCC3)cc2)n2nccc2c1`, for which the “% Inhibition” value was found to be 2% and the Z score is on record as -0.38.
Consider `CC(=O)Nc1cc2ncnn2c(NC(C)=O)n1`, for which the “% Inhibition” value is on record as -8% and the Z score is 1.1.
For the compound `Cc1nc(C)c(C(=O)N[C@H]2CC[C@H](Oc3ccccn3)CC2)s1`, the “% Inhibition” value was -14% and the Z score was determined as 1.6.
As to `CC(C)(C)C(=O)Nc1ccccc1NC(=O)C(C)(C)C`, the “% Inhibition” value turned out to be 5% and the Z score is -0.66.
As for `CC(C)(C)Nc1nc2nonc2nc1NC1CCCCC1`, the “% Inhibition” value was determined as 38% and the Z score is -4.92.
On to `COc1ccc(NC(=O)c2cn3ccnc(-c4ccccc4)c3n2)cc1OC`, for which the “% Inhibition” value is reported as 29% and the Z score is recorded as -3.24.
With `COC(C(=O)NC1(c2noc(C3CCCO3)n2)CCCCCC1)C1CC1` (configuration not stated), the “% Inhibition” value is on record as -9% and the Z score was found to be 1.59.
Take `Cc1c(C#N)c(NC(=O)CN2CCN(Cc3ccc4c(c3)CCO4)CC2)n(Cc2ccco2)c1C`: the “% Inhibition” value is on record as 15% and the Z score was -1.71.
`CC1CCN(c2ncc3c(n2)CCN(Cc2ccc(Cl)cc2)C3)CC1`: the “% Inhibition” value is given as -17% and the Z score is on record as 3.16.
With `O=C(c1nccc2ccccc12)N1CCN(Cc2ccncc2)CC1`, the “% Inhibition” value was -4% and the Z score amounted to 0.57.
Consider `CCCCn1nnnc1Cn1c(=O)n(C)c2ccccc21`, for which the “% Inhibition” value is reported as -2% and the Z score stood at 0.32.
On the same counts, the results for `Cc1ccc2cc(C(=O)[C@@H](C#N)C(=O)c3nccn3C)c(C)nc2c1` are -2% and 0.34.
Take `Cc1nc(N(C)C2CC[S+]([O-])CC2)c2cnn(C(C)(C)C)c2n1` (configuration not stated): the “% Inhibition” value is 4% and the Z score is given as -0.46.
Take `O=C(CS(=O)(=O)c1ccccc1)Nc1ccc(S(=O)(=O)Nc2nccs2)cc1`: the “% Inhibition” value was -6% and the Z score is 1.15.
For `NC(=O)[C@H]1CC=CC[C@@H]1Nc1nnc(-c2ccccc2)s1`, the “% Inhibition” value is on record as -15% and the Z score amounted to 2.04.
Turning to `CC(C)C[C@H](NC(=O)c1ccccc1F)C(=O)N(C)C`, the “% Inhibition” value is reported as 1% and the Z score is -0.08.
Turning to `C#CCCC1(CCC(=O)N2CC3(CCCC3)[C@H]2c2ccco2)N=N1`, the “% Inhibition” value is -14% and the Z score is listed as 1.8.
On to `Clc1ccc2[nH]c([C@@H]3CCCCN3)nc2c1`, for which the “% Inhibition” value is -2% and the Z score worked out at 0.25.
On the same counts, the results for `COC(=O)C1(NCc2csc(C)n2)CCC(C)CC1` (configuration not stated) are -3% and 0.53.
As for `C[C@H]1CCCCN1S(=O)(=O)c1ccc(NC(=O)c2sc3ccccc3c2Cl)cc1`, the “% Inhibition” value is -17% and the Z score is 3.36.
On the same counts, the results for `Cc1ccc(C2=NO[C@@H](CNC(=O)NCCn3ccnc3)C2)cc1C` are -4% and 0.61.
For the compound `COc1ccccc1NC(=O)NC(C)(C)c1ncc(OC)c(=O)[nH]1`, the “% Inhibition” value was found to be 4% and the Z score is -0.85.
On the same counts, the results for `CC(C)CCN1CC2(CCN([C@@H](C)CCN(C)C)CC2)OC1=O` are -12% and 1.62.
On the same counts, the results for `COC1CCCCCC1NC(=O)NC(C)(CO)C1CC1` (configuration not stated) are 0% and -0.03.
On the same counts, the results for `CCOC(=O)N1C(C(=O)NC2CC2)CCC1c1ccc(C)o1` (configuration not stated) are -5% and 0.62.
As to `CCC[C@H](NS(=O)(=O)c1cc(-c2cc(C)no2)ccc1C)c1cccs1`, the “% Inhibition” value is given as 0% and the Z score is recorded as -0.03.
Regarding `Cc1cc(C(=O)Nc2nc(CC3CC3)ns2)ns1`, the “% Inhibition” value is listed as -9% and the Z score is listed as 1.64.
As to `CCN(CC(=O)Nc1ccc(NC(C)=O)cc1)C(=O)CN1C(=O)NC2(CCCC2)C1=O`, the “% Inhibition” value worked out at 0% and the Z score is given as -0.02.
On the same counts, the results for `C[C@](O)(CNC(=O)NCc1cccs1)c1cc2ccccc2s1` are 4% and -0.62.
For `O=S(=O)(c1ccc(-c2cc(C(F)(F)F)n[nH]2)s1)N1CCCc2ccccc21`, the “% Inhibition” value is -5% and the Z score came to 0.99.
As for `COc1cc2ccccc2cc1C(=O)NC1CC1`, the “% Inhibition” value was -13% and the Z score amounted to 1.22.
On the same counts, the results for `O=C(Nc1ccc2c(c1)OCCCO2)c1cccc[n+]1[O-]` are -7% and 0.91.
On the same counts, the results for `Cc1n[nH]c(=O)c2c(NC(=O)CN(C)Cc3ccccc3Cl)oc(C)c12` are 2% and -0.16.
For the compound `C[C@](O)(CNC(=O)C1(c2cccnc2)CCCC1)c1ccc(F)cc1`, the “% Inhibition” value is given as -5% and the Z score came out at 0.76.
On the same counts, the results for `O=C(NCC1(CO)CCC1)N1CCN(C/C=C/c2ccccc2)CC1` are 1% and -0.23.
On the same counts, the results for `COc1ccccc1[C@H](CNC(=O)c1c[nH]nc1-c1ccsc1)OC(C)C` are 2% and -0.32.
As to `CCNC(=O)c1csc(N2CCCCCC2)n1`, the “% Inhibition” value was 10% and the Z score is reported as -1.74.
For the compound `C[C@H]1CS(=O)(=O)N(c2ccc(C(=O)NC(C)(C)C)c(Cl)c2)C1=O`, the “% Inhibition” value was -2% and the Z score was determined as 0.23.
In the case of `CN(Cc1ccc(CN2CCc3[nH]nc(C4CC4)c3C2)o1)S(C)(=O)=O`, the “% Inhibition” value is recorded as 4% and the Z score was -0.64.
Take `COC(=O)c1ncsc1S(=O)(=O)NC(=O)c1ncoc1-c1ccccc1Cl`: the “% Inhibition” value is given as -18% and the Z score came out at 1.61.
As for `CN(Cc1nnc2n1CCOCC2)C(=O)c1ccc(CNC(=O)C(C)(C)C)cc1`, the “% Inhibition” value is on record as -7% and the Z score turned out to be 0.79.
As for `Cc1nc(C)c(CC(=O)NCc2cccnc2-n2ccnc2)s1`, the “% Inhibition” value was -18% and the Z score is 2.12.
Regarding `COc1ccc(-c2noc(-c3cccn3CC(=O)N3CCN(c4ccccc4OC)CC3)n2)cc1F`, the “% Inhibition” value was -11% and the Z score was 1.46.
For the compound `COc1cnc(NC(=O)N2CCn3c(cnc3C(F)(F)F)C2)s1`, the “% Inhibition” value was -2% and the Z score came to 0.24.
Regarding `CCc1nnc(CNC(=O)C(=O)c2ccco2)o1`, the “% Inhibition” value is -5% and the Z score came out at 0.65.
`COC1CCN(CCNC(=O)c2cc(C)sc2C)CC1`: the “% Inhibition” value was -1% and the Z score came out at 0.22.
For `O=C(NC1(CO)CC1)c1ncc(F)cc1F`, the “% Inhibition” value was -16% and the Z score turned out to be 2.44.
On the same counts, the results for `CC(C)(CNC(=O)c1cnn2c1CCC2)C1(O)CCCC1` are 5% and -0.6.
For the compound `O=c1cc(-c2ccncc2)nc(N2CCCC2)n1Cc1ccccc1F`, the “% Inhibition” value is given as -2% and the Z score was 0.2.
For `CCCCc1nnc(NS(=O)(=O)c2cnn3ccccc23)o1`, the “% Inhibition” value is -15% and the Z score is on record as 2.84.
Take `Cc1cnn(CC(=O)NCc2ccc(C)n2C)c1`: the “% Inhibition” value is on record as -1% and the Z score is 0.12.
On the same counts, the results for `NC(=O)[C@H](NC(=O)CC(F)(F)F)c1cccc(Br)c1` are -14% and 1.25.
On the same counts, the results for `CCOC(=O)C1(CNC(=O)Cc2ccc(OC(F)F)cc2)CCCC1` are -8% and 0.96.
For the compound `COc1ccc(NC(=O)c2cc(-c3ccccc3Cl)nn2C)cn1`, the “% Inhibition” value came to 8% and the Z score was -1.04.
On the same counts, the results for `Cc1nnc(-c2cccc(NC(=O)[C@@H]3CCCCN3C(=O)c3cc(C(C)C)no3)c2)s1` are -8% and 0.75.
As for `COc1ccc2c(c1)C1(CC1)CN(C(=O)N(C)CC(F)(F)F)C2`, the “% Inhibition” value is on record as -12% and the Z score came out at 1.72.
`CN(C)C(=NC[C@@H](c1c(F)cccc1F)N(C)C)N(C)C`: the “% Inhibition” value worked out at 3% and the Z score is given as -0.48.
Regarding `CCCn1cnnc1COC(=O)CC1OCCO1`, the “% Inhibition” value is given as -10% and the Z score is 1.18.
For `Cc1cc(NC(=O)C(C)(C)NS(C)(=O)=O)nn1C`, the “% Inhibition” value is given as -3% and the Z score is reported as 0.5.
On the same counts, the results for `Cc1cc(C(=O)N2C[C@H]3CC[C@@H](C2)N(Cc2c(C)noc2C)C3=O)c(C)o1` are -3% and 0.56.
On the same counts, the results for `C#CCCC1(CCC(=O)N2CCCC[C@H]2C(F)F)N=N1` are 6% and -0.72.
In the case of `CCC(CC)(CO)CN(C)C(=O)c1cncn1C`, the “% Inhibition” value is -1% and the Z score came out at 0.25.
